In the supplement of paper PMC8728848:
Some of the results follow.

What was measured:
Assay in all cases: glycan array binding signal (z-score within array); higher = stronger binding
Conditions in all cases: glycan notation: IUPAC condensed, linker removed
Gal3S(b1-4)Glc = target: Gal3S(b1-4)Glc
In short: (§1)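 From the Consortium for Functional Glycomics database, 3228 arrays were curated, keeping only those whose protein sequence was available. Binding is given as a within-array Z-score averaged across arrays sharing a protein sequence and across linkers. Negative Z-scores can be read as non-binding.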

Gal3S(b1-4)Glc6S = target: Gal3S(b1-4)Glc6S
In short: as §1

Gal3S(b1-4)GlcNAc = target: Gal3S(b1-4)GlcNAc
In short: as §1

[1] = target: Gal3S(b1-4)[Fuc(a1-3)]Glc6S
In short: as §1

[2] = target: Gal3S(b1-4)[Fuc(a1-3)]GlcNAc
In short: as §1

[3] = target: Gal3S(b1-4)[Fuc(a1-3)]GlcNAc6S
In short: as §1

Gal3S4S(b1-4)GlcNAc = target: Gal3S4S(b1-4)GlcNAc
In short: as §1

Gal3S6S(b1-4)GlcNAc = target: Gal3S6S(b1-4)GlcNAc
In short: as §1

Gal3S6S(b1-4)GlcNAc6S = target: Gal3S6S(b1-4)GlcNAc6S
In short: as §1

Gal4S(b1-4)GlcNAc = target: Gal4S(b1-4)GlcNAc
In short: as §1

Gal4S6S(b1-4)GlcNAc = target: Gal4S6S(b1-4)GlcNAc
In short: as §1

Gal6P(b1-4)GlcNAc = target: Gal6P(b1-4)GlcNAc
In short: as §1

Gal6S(b1-3)GlcNAc = target: Gal6S(b1-3)GlcNAc
In short: as §1

Gal6S(b1-3)GlcNAc6S = target: Gal6S(b1-3)GlcNAc6S
In short: as §1

Gal6S(b1-4)Glc = target: Gal6S(b1-4)Glc
In short: as §1

Gal6S(b1-4)Glc6S = target: Gal6S(b1-4)Glc6S
In short: as §1

Gal6S(b1-4)GlcNAc = target: Gal6S(b1-4)GlcNAc
In short: as §1

Gal6S(b1-4)GlcNAc6S = target: Gal6S(b1-4)GlcNAc6S
In short: as §1

GalNAc(a1-3)Gal = target: GalNAc(a1-3)Gal
In short: as §1

GalNAc(a1-3)GalNAc = target: GalNAc(a1-3)GalNAc
In short: as §1

[4] = target: GalNAc(a1-3)GalNAc(a1-3)Gal(a1-4)Gal(b1-4)GlcNAc
In short: as §1

[5] = target: GalNAc(a1-3)GalNAc(b1-3)Gal(a1-4)Gal(b1-4)Glc
In short: as §1

GalNAc(b1-3)Gal = target: GalNAc(b1-3)Gal
In short: as §1

[6] = target: GalNAc(b1-3)Gal(a1-4)Gal(b1-4)GlcNAc
In short: as §1

[7] = target: GalNAc(b1-3)Gal(a1-4)Gal(b1-4)GlcNAc(b1-3)Gal(b1-4)Glc
In short: as §1

[8] = target: GalNAc(b1-3)Gal(a1-6)Gal(b1-4)Glc
In short: as §1

GalNAc(b1-3)GalNAc = target: GalNAc(b1-3)GalNAc
In short: as §1

GalNAc(b1-3)GlcNAc = target: GalNAc(b1-3)GlcNAc
In short: as §1

GalNAc(b1-4)Gal(b1-4)Glc = target: GalNAc(b1-4)Gal(b1-4)Glc
In short: as §1

GalNAc(b1-4)GlcNAc = target: GalNAc(b1-4)GlcNAc
In short: as §1

[9] = target: GalNAc(b1-4)GlcNAc(b1-2)Man
In short: as §1

[10] = target: GalNAc(b1-4)GlcNAc(b1-2)Man(a1-3)[GalNAc(b1-4)GlcNAc(b1-2)Man(a1-6)]Man(b1-4)GlcNAc(b1-4)GlcNAc
In short: as §1

[11] = target: GalNAc(b1-4)GlcNAc(b1-3)GalNAc(b1-4)GlcNAc
In short: as §1

GalNAc(b1-4)GlcNAc6S = target: GalNAc(b1-4)GlcNAc6S
In short: as §1

GalNAc(b1-6)GalNAc = target: GalNAc(b1-6)GalNAc
In short: as §1

GalNAc3S(b1-4)GlcNAc = target: GalNAc3S(b1-4)GlcNAc
In short: as §1

GalNAc3S(b1-4)GlcNAc3S = target: GalNAc3S(b1-4)GlcNAc3S
In short: as §1

[12] = target: GalNAc3S(b1-4)[Fuc(a1-3)]GlcNAc
In short: as §1

GalNAc4S6S(b1-4)GlcNAc = target: GalNAc4S6S(b1-4)GlcNAc
In short: as §1

GalNAc6S(b1-4)GlcNAc = target: GalNAc6S(b1-4)GlcNAc
In short: as §1

Glc(a1-4)Glc = target: Glc(a1-4)Glc
In short: as §1

[13] = target: Glc(a1-4)Glc(a1-4)Glc(a1-4)Glc
In short: as §1

Glc(a1-6)Glc(a1-6)Glc = target: Glc(a1-6)Glc(a1-6)Glc
In short: as §1

[14] = target: Glc(a1-6)Glc(a1-6)Glc(a1-6)Glc
In short: as §1

Glc(b1-4)Glc = target: Glc(b1-4)Glc
In short: as §1

B1: FliC (Pseudomonas aeruginosa), P72151 (protein)
chain: MALTVNTNIASLNTQRNLNASSNDLNTSLQRLTTGYRINSAKDDAAGLQISNRLSNQISGLNVATRNANDGISLAQTAEGALQQSTNILQRIRDLALQSANGSNSDADRAALQKEVAAQQAELTRISDTTTFGGRKLLDGSFGTTSFQVGSNAYETIDISLQNASASAIGSYQVGSNGAGTVASVAGTATASGIASGTVNLVGGGQVKNIAIAAGDSAKAIAEKMDGAIPNLSARARTVFTADVSGVTGGSLNFDVTVGSNTVSLAGVTSTQDLADQLNSNSSKLGITASINDKGVLTITSATGENVKFGAQTGTATAGQVAVKVQGSDGKFEAAAKNVVAAGTAATTTIVTGYVQLNSPTAYSVSGTGTQASQVFGNASAAQKSSVASVDISTADGAQNAIAVVDNALAAIDAQRADLGAVQNRFKNTIDNLTNISENATNARSRIKDTDFAAETAALSKNQVLQQAGTAILAQANQLPQAVLSLLR
For B1, which “glycan array binding signal (z-score)” value (Gal3S(b1-4)Glc) is on record?
The value was -0.181.

What about the “glycan array binding signal (z-score)” value (Gal3S(b1-4)Glc6S) of the same binder?
Its value is -0.111.

What about the “glycan array binding signal (z-score)” value (Gal3S(b1-4)GlcNAc) of the same binder?
The value was -0.259.

And the “glycan array binding signal (z-score)” value [1]?
The value was -0.023.

What about the “glycan array binding signal (z-score)” value [2] of the same binder?
The value was -0.027.

And the “glycan array binding signal (z-score)” value [3]?
Its value is -0.056.

And the “glycan array binding signal (z-score)” value (Gal3S4S(b1-4)GlcNAc)?
The value was -0.162.

And the “glycan array binding signal (z-score)” value (Gal3S6S(b1-4)GlcNAc)?
The value was -0.145.

And the “glycan array binding signal (z-score)” value (Gal3S6S(b1-4)GlcNAc6S)?
The value was -0.237.

What about the “glycan array binding signal (z-score)” value (Gal4S(b1-4)GlcNAc) of the same binder?
The value was -0.116.

And the “glycan array binding signal (z-score)” value (Gal4S6S(b1-4)GlcNAc)?
Its value is -0.141.

What about the “glycan array binding signal (z-score)” value (Gal6P(b1-4)GlcNAc) of the same binder?
The value was -0.243.

What about the “glycan array binding signal (z-score)” value (Gal6S(b1-3)GlcNAc) of the same binder?
The value was -0.029.

And the “glycan array binding signal (z-score)” value (Gal6S(b1-3)GlcNAc6S)?
Its value is -0.193.

What about the “glycan array binding signal (z-score)” value (Gal6S(b1-4)Glc) of the same binder?
Its value is -0.124.

And the “glycan array binding signal (z-score)” value (Gal6S(b1-4)Glc6S)?
The value was -0.158.

And the “glycan array binding signal (z-score)” value (Gal6S(b1-4)GlcNAc)?
The value was -0.086.

And the “glycan array binding signal (z-score)” value (Gal6S(b1-4)GlcNAc6S)?
Its value is -0.194.

And the “glycan array binding signal (z-score)” value (GalNAc(a1-3)Gal)?
Its value is -0.141.

And the “glycan array binding signal (z-score)” value (GalNAc(a1-3)GalNAc)?
Its value is -0.15.

What about the “glycan array binding signal (z-score)” value [4] of the same binder?
The value was -0.072.

And the “glycan array binding signal (z-score)” value [5]?
Its value is -0.183.

What about the “glycan array binding signal (z-score)” value (GalNAc(b1-3)Gal) of the same binder?
Its value is -0.205.

What about the “glycan array binding signal (z-score)” value [6] of the same binder?
The value was -0.16.

And the “glycan array binding signal (z-score)” value [7]?
Its value is -0.148.

And the “glycan array binding signal (z-score)” value [8]?
The value was -0.167.

What about the “glycan array binding signal (z-score)” value (GalNAc(b1-3)GalNAc) of the same binder?
The value was -0.154.

And the “glycan array binding signal (z-score)” value (GalNAc(b1-3)GlcNAc)?
Its value is -0.196.

What about the “glycan array binding signal (z-score)” value (GalNAc(b1-4)Gal(b1-4)Glc) of the same binder?
Its value is -0.053.

And the “glycan array binding signal (z-score)” value (GalNAc(b1-4)GlcNAc)?
Its value is -0.058.

And the “glycan array binding signal (z-score)” value [9]?
The value was -0.198.

What about the “glycan array binding signal (z-score)” value [10] of the same binder?
Its value is 0.194.

And the “glycan array binding signal (z-score)” value [11]?
The value was -0.215.

What about the “glycan array binding signal (z-score)” value (GalNAc(b1-4)GlcNAc6S) of the same binder?
Its value is -0.207.

What about the “glycan array binding signal (z-score)” value (GalNAc(b1-6)GalNAc) of the same binder?
Its value is -0.182.

And the “glycan array binding signal (z-score)” value (GalNAc3S(b1-4)GlcNAc)?
The value was -0.135.

What about the “glycan array binding signal (z-score)” value (GalNAc3S(b1-4)GlcNAc3S) of the same binder?
The value was 0.303.

What about the “glycan array binding signal (z-score)” value [12] of the same binder?
The value was -0.192.

And the “glycan array binding signal (z-score)” value (GalNAc4S6S(b1-4)GlcNAc)?
Its value is 0.021.

And the “glycan array binding signal (z-score)” value (GalNAc6S(b1-4)GlcNAc)?
Its value is -0.203.

What about the “glycan array binding signal (z-score)” value (Glc(a1-4)Glc) of the same binder?
The value was -0.187.

What about the “glycan array binding signal (z-score)” value [13] of the same binder?
The value was 0.297.

What about the “glycan array binding signal (z-score)” value (Glc(a1-6)Glc(a1-6)Glc) of the same binder?
The value was -0.231.

What about the “glycan array binding signal (z-score)” value [14] of the same binder?
Its value is -0.13.

What about the “glycan array binding signal (z-score)” value (Glc(b1-4)Glc) of the same binder?
Its value is -0.17.
